From publication PMC2174220 (The Journal of Cell Biology, 1999)

B1: p24 subunit of dynactin (natural protein)
chain: not shown
B2: dynamitin (p50) subunit of dynactin, endogenous bovine (natural protein)
chain: not shown

Columns and labels:
[1] = target: B2; test: SEC
[2] = target: B1; test: co-sedimentation

Binder | binding result [1] | stoichiometry N [2]
B1 | binds | 
B2 |  | 2 dynamitin per 1 p24 (molar ratio in the shoulder)
